SMILES strings stand for the structures. The campaign covered roughly 7,900 compounds. About 400 (5.1%) showed an effect of 50% or more. Some of the results follow.

Chain of Parkinson's disease protein 7 (PARK7/DJ1) (Q99497 whole entry, looked up, the tested form may be a part): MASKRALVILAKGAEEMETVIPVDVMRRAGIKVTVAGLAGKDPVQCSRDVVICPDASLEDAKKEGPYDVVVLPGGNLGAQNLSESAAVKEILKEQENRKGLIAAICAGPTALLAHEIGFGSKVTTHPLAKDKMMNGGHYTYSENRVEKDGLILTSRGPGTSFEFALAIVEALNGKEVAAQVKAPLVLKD

The experiment addresses Parkinson's disease protein 7 (PARK7/DJ1) (human, UniProt Q99497). The experiment is described as follows: primary screen, percent inhibition; read as competition with a fluorescent probe by fluorescence polarization; higher = more effect of the substance. To be noted: 100 µM. In outline:
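Fluorescence-polarization probe displacement (JYQ-107, 20 nM final, 2 h) after 2 h preincubation of PARK7 (0.2 μM final) with each fragment at 100 μM final. Read-out ex/em 480/520 nm; remaining activity derived from FP signal loss relative to reference controls.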
Take `CCOCCCN1C(=O)CN=C1S`: the Inhibition % came to 10.3%.

Take `N#Cc1ccc(CC(=O)O)cn1`: the Inhibition % is reported as 4.36%.

Turning to `Cc1ccc(C(=O)Cn2cnc(C#N)n2)cc1C`, the Inhibition % was -0.877%.

On to `CN1CCN(C(=O)C=Cc2c(Cl)nc3ccccn23)CC1`, for which the Inhibition % is 9.8%.

`C=CC(=O)N(C)C1Cc2ccccc2C1`: the Inhibition % is on record as 5.96%.

With `CC1(C)OB(c2cncc(-n3cccn3)c2)OC1(C)C`, the Inhibition % is given as 9.82%.

Consider `Cl.SC1CCCN(Cc2ccccc2)C1` (stereo not shown), for which the Inhibition % was 24.1%.

For the compound `CC(C)(C)OC(=O)N1CCC(CB2OC(C)(C)C(C)(C)O2)C1` (stereo not shown), the Inhibition % stood at 3.29%.

Take `O=C(CCl)NC1CCCCC1C(F)(F)F` (stereo not shown): the Inhibition % stood at 12.8%.

In the case of `C=CC(=O)N1CCS(=O)(=O)C2CCCCC21` (stereo not shown), the Inhibition % was found to be 5.02%.

In the case of `O=C(CCl)Nc1cc([N+](=O)[O-])ccc1Cl`, the Inhibition % is listed as 16.6%.

For `O=C(O)c1ccc(CN2C(=O)CSC2=O)cc1`, the Inhibition % was found to be 47.9%.

As for `Cc1c(Cl)cccc1B1OC(C)(C)C(C)(C)O1`, the Inhibition % amounted to 1.79%.

As to `C=CC(=O)N1CC(n2nc(C)nc2C)C1`, the Inhibition % worked out at 9.38%.

For `CN(CCOc1ccccc1F)c1cccnc1C#N`, the Inhibition % is 40.3%.

For `Cc1nc(C#N)c(N)nc1Cl`, the Inhibition % was found to be 10.2%.

With `CN(C)c1ncc(B2OC(C)(C)C(C)(C)O2)cc1Cl`, the Inhibition % is listed as 0.0857%.

In the case of `C=CCNC(=O)C(C#N)=Cc1sccc1C`, the Inhibition % is reported as 2.32%.

Consider `COc1ccccc1C=C(C#N)S(C)(=O)=O`, for which the Inhibition % was found to be 8%.

For the compound `COc1cc(C)c(S(=O)(=O)n2cccn2)cc1C(C)C`, the Inhibition % is given as 1.74%.

Take `C=CC(=O)Nc1ccnn1-c1ccccc1C`: the Inhibition % was 17.7%.

With `O=c1c2ccccc2ccn1CCS(=O)(=O)F`, the Inhibition % was determined as 95.1%.

With `C=CC(=O)N1CCCOc2ccccc21`, the Inhibition % was found to be 4.84%.

With `CN(Cc1cccc(Cl)c1)C(=O)CCl`, the Inhibition % is recorded as 49.6%.

For the compound `COc1ccc(NC2C=CS(=O)(=O)C2)cc1` (stereo not shown), the Inhibition % is recorded as 17%.

Take `O=C(CCl)Nc1ccc(Cl)cc1C(=O)O`: the Inhibition % is recorded as 52.4%.

In the case of `CCOc1cc(S(=O)(=O)n2ccnc2)ccc1Cl`, the Inhibition % worked out at 4.34%.

For the compound `Cc1nc(C=CC(=O)N2CCC(C)(C(=O)O)C2)cs1` (stereo not shown), the Inhibition % was 5.72%.

As to `CCn1cc(B2OC(C)(C)C(C)(C)O2)c(C)n1`, the Inhibition % stood at 6.39%.

Turning to `COc1ccc(C(C)C)cc1S(=O)(=O)n1ccnc1`, the Inhibition % was 9.91%.

With `C=CC(=O)N1CCC(F)CC1`, the Inhibition % is reported as 12.5%.

For the compound `COc1ccc(C(Cl)=CC#N)cc1`, the Inhibition % is recorded as 3.52%.

As to `Cc1occc1C(=O)C(C#N)=Cc1cnn(C)c1`, the Inhibition % was 11.6%.

On to `C=CC(=O)N1CCCC(c2nc(C(F)(F)F)cs2)C1` (stereo not shown), for which the Inhibition % is reported as 15.5%.
